Assay results as given in the supplement of paper PMC10477191.
± gives the standard deviation of the averaged measurements. The list shows a part of the results.

System: Drosophila virilis
Experiment: attraction index (odor vs solvent trap) (index (-1 to 1)); higher = more attraction to the odorant
Details: test temperature 23 °C; odor dose: 10^-2 dilution in mineral oil
Protocol: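 Two-choice trap assay at 23 °C and 70% humidity. Starved adult flies (20 per box, 4-6 days old) chose between a trap with odorant (2 µl at 10^-2 in 200 µl mineral oil) and a solvent trap; counts were taken after 24 h.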

Structure (SMILES)	attraction index
CCCCCC(=O)OCC [ethyl hexanoate]	0.0404 ± 0.35
CCCCCC(C)=O [2-heptanone]	0.052 ± 0.25
CC(=O)OC/C=C(\C)CCC=C(C)C [geranyl acetate]	-0.235 ± 0.3
CCCCCOC(C)=O [pentyl acetate]	-0.0558 ± 0.38
COC(=O)c1ccccc1O [methyl salicylate]	0.454 ± 0.23
CCOC(=O)C(C)O (stereo not drawn) [ethyl lactate]	0.268 ± 0.43
CC(=O)C(C)O (stereo not drawn) [acetoin]	0.593 ± 0.26
CCOC(=O)CC(C)O (stereo not drawn) [ethyl 3-hydroxybutyrate]	0.58 ± 0.39
CC(=O)CCC=C(C)C [6-methyl-5-hepten-2-one]	-0.666 ± 0.29
C=CC(O)CCCCC (stereo not drawn) [1-octen-3-ol]	-0.258 ± 0.5
CCCCCCOC(C)=O [hexyl acetate]	-0.744 ± 0.25
CCCCCCO [1-hexanol]	0.22 ± 0.54
COc1cccc(OC)c1O [2,6-dimethoxyphenol]	-0.25 ± 0.53
CC(=O)c1ccccc1 [acetophenone]	-0.466 ± 0.5
COc1ccccc1O [guaiacol]	-0.704 ± 0.15
CC(C)OC(=O)c1ccccc1 [isopropyl benzoate]	0.00695 ± 0.4
CCCC(=O)OCc1ccccc1 [benzyl butyrate]	0.468 ± 0.28
COC(=O)c1ccccc1 [methyl benzoate]	-0.395 ± 0.27
